{"source": "PubChem BioAssay AID1768", "about": "(National Center for Advancing Translational Sciences (NCATS), 2009)", "note": "The whole screen tested about 270,000 compounds, of which about 620 (0.23%) were called active. The shares of active, inactive and inconclusive entries below differ from those in the screen. The call rests on the fitted dose curve; in most records, active means well fitted inhibition curve with a large enough effect in the polarisation, with a control signal flat (not every such curve was filed as active); inconclusive means small, poorly fitted or top-dose-only effect, or effect the other way, or a change in a side signal; inactive means no such curve, though single readings can be large or run the other way; the % refers to the polarisation. Potencies of inconclusive entries are doubtful fits and often do not repeat. “Side channel” marks fits to a control or component signal instead of the main read-out. Potency means the concentration at half of the fitted maximal effect; tags describe the fitted curve by direction and shape or compound fluorescence and quenching."}
{"molecular_target": "Menin (Homo sapiens) (UniProt O00255)", "sequence (O00255 whole entry, looked up)": "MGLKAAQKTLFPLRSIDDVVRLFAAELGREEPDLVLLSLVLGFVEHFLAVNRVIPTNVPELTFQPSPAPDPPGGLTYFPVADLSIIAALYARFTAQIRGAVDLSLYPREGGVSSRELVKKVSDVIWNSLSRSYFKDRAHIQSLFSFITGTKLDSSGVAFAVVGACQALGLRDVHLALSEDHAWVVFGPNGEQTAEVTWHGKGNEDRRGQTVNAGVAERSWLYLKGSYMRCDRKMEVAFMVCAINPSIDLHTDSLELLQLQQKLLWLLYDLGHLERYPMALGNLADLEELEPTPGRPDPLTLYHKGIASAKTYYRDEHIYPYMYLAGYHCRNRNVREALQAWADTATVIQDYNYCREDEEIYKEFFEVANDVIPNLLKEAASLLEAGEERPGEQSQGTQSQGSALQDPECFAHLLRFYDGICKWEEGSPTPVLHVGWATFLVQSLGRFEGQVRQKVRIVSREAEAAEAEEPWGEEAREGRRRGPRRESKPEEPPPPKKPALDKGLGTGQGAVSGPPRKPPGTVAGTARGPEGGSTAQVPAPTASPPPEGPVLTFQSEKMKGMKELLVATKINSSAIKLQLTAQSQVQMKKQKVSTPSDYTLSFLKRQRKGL", "assay": "qHTS Assay for Inhibitors Targeting the Menin-MLL Interaction in MLL Related Leukemias: Competition With Texas Red Labeled MLL-derived Mutant Peptide", "details": "fluorescence polarization; series mostly up to 61.6 µM"}
{"molecule": "CCOC(=O)CC(=O)CSc1nc2ccc(C)cc2cc1C#N", "Potency": "inconclusive: 22.4 µM [inhibitor, partial curve]"}
{"molecule": "COC(=O)c1cc2c(-c3ccccc3)c(C)c3ccccn3c-2c1C(=O)OC", "Potency": "active: 35.5 µM"}
{"molecule": "CCOC(=O)C1(CC2CCCCO2)CCN(Cc2c(C)cc(C)cc2-n2cccn2)CC1", "note": "(centres undefined)", "Potency": "inconclusive: 3.16 µM [fluorescent, side channel, partial curve]"}
{"molecule": "O=C(O)c1ccc(NC(=O)c2ccc(COc3ccc(Cl)cc3)o2)cc1", "Potency": "inconclusive: 35.5 µM [quencher, side channel, single point]"}
{"molecule": "CCC(=O)N(CCC(Cc1ccccc1)c1ccco1)Cc1ccco1", "note": "(centres undefined)", "Potency": "inconclusive: 2.82 µM [fluorescent, side channel, full curve]"}
{"molecule": "CC(=O)c1c(COC(=O)c2ccco2)nc2ccccc2[n+]1[O-]", "Potency": "inconclusive: 28.2 µM [quencher, side channel, single point]"}
{"molecule": "O=C(Nc1cccc(C(=O)NC2CCCCC2)c1)c1ccccc1", "Potency": "inconclusive: 39.8 µM [inhibitor, single point]"}
{"molecule": "O=[N+]([O-])c1ccc(N/N=C/c2cn(Cc3ccc(F)cc3)c3ccccc23)nc1", "Potency": "inconclusive: 1.78 µM [quencher, side channel, full curve]"}
{"molecule": "Cc1cc(C)c2cc(C#N)c(N3CCCN(C(=S)NCCCN(C)C)CC3)nc2c1", "Potency": "inconclusive: 3.16 µM [inhibitor, full curve]"}
{"molecule": "CCCc1cc(N2CCCC2)n2nc(C)c(-c3ccccc3)c2n1", "Potency": "inactive"}
{"molecule": "COc1ccc(Cc2nc(-c3ccc(-n4cccc4)cc3)no2)cc1OC", "Potency": "inconclusive: 22.4 µM [quencher, side channel, partial curve]"}
{"molecule": "CCN(CC)S(=O)(=O)c1cc([N+](=O)[O-])ccc1N=Nc1c(O)[nH]c2ccccc12", "Potency": "inactive"}
{"molecule": "CCc1cc(=O)oc2cc(OCc3nn[nH]n3)ccc12", "Potency": "inconclusive: 2 µM [inhibitor, partial curve]"}
{"molecule": "O=[N+]([O-])c1ccc(N=Nc2ncc[nH]2)cc1", "Potency": "inconclusive: 12.6 µM [quencher, side channel, partial curve]"}
{"molecule": "COc1ccc(NC(=O)Nc2cc(C)ccc2OC(F)F)c(OC)c1", "Potency": "inconclusive: 15.8 µM [quencher, side channel, partial curve]"}
{"molecule": "Oc1cccc(C(O)CNCc2ccc(-c3ccccc3)cc2)c1", "note": "(centres undefined)", "Potency": "inconclusive: 17.8 µM [fluorescent, side channel, single point]"}
{"molecule": "CC1CC(C)(C)Nc2ccc(OC(=O)c3ccco3)cc21", "note": "(centres undefined)", "Potency": "inconclusive: 8.91 µM [inhibitor, partial curve]"}
{"molecule": "CN1CCN(c2ccc([N+](=O)[O-])cc2C(=O)c2ccc(Br)cc2)CC1", "Potency": "inconclusive: 8.91 µM [inhibitor, single point]"}
{"molecule": "CC(c1ccccn1)N(C)C(=O)c1ccc2nc(Cc3cccc(Cl)c3)oc2c1", "note": "(centres undefined)", "Potency": "inconclusive: 7.94 µM [fluorescent, side channel, full curve, poor fit]"}
{"molecule": "O=C(NN=C1CCCCCC1)c1ccc(Br)o1", "Potency": "inconclusive: 35.5 µM [inhibitor, partial curve]"}
{"molecule": "O=[N+]([O-])c1ccc(C=Nc2ccc(Cl)c([N+](=O)[O-])c2)s1", "Potency": "inconclusive: 28.2 µM [quencher, side channel, single point]"}
{"molecule": "O=C(N/N=C/c1ccccc1F)c1cccc2ccccc12", "Potency": "inconclusive: 39.8 µM [fluorescent, side channel, single point]"}
{"molecule": "CC1=[N+](C)c2ccc3ccccc3c2C1(C)C", "Potency": "inconclusive: 0.794 µM [fluorescent, side channel, full curve]"}
{"molecule": "N#C/C(=C\\c1ccc(F)cc1)c1nc(-c2ccco2)cs1", "Potency": "inconclusive: 28.2 µM [quencher, side channel, partial curve]"}
{"molecule": "O=C(O)C(Cc1c[nH]c2ccccc12)NS(=O)(=O)c1ccc(Cl)c(C(F)(F)F)c1", "note": "(centres undefined)", "Potency": "inconclusive: 39.8 µM [quencher, side channel, single point]"}
{"molecule": "CC(C)OC(=O)CCC/C=C\\C[C@@H]1[C@@H](CC[C@@H](O)CCc2ccccc2)[C@H](O)C[C@@H]1O", "Potency": "inconclusive: 35.5 µM [fluorescent, side channel, partial curve]"}
{"molecule": "COc1ccc(C2C(=O)N(CCc3ccccc3)CC(=O)N2C2CCCC2)cc1", "note": "(centres undefined)", "Potency": "inconclusive: 6.31 µM [inhibitor, full curve, poor fit]"}
{"molecule": "O=C1C(=O)N(CCCc2ccccc2)c2ccccc21", "Potency": "inactive"}
{"molecule": "O=C1S/C(=C\\C=C\\c2ccco2)C(=O)N1c1ccccc1", "Potency": "inconclusive: 31.6 µM [quencher, side channel, single point]"}
{"molecule": "Cc1cccc(CSCc2ccc(C(=O)NC3CCCC3)o2)c1", "Potency": "inconclusive: 10 µM [fluorescent, side channel, partial curve]"}
{"molecule": "O=C1NC(=Nc2ccccc2Cl)S/C1=C\\c1cccc([N+](=O)[O-])c1O", "Potency": "inconclusive: 22.4 µM [quencher, side channel, single point]"}
{"molecule": "CCN1CCN(C(c2cccs2)C(C)NS(=O)(=O)c2ccc(Br)cc2)CC1", "note": "(centres undefined)", "Potency": "inconclusive: 25.1 µM [inhibitor, single point]"}
{"molecule": "COc1ccc(-c2[nH]c3ccccc3c2SCCNC(=O)c2cc3ccccc3oc2=O)cc1", "Potency": "inconclusive: 4.47 µM [quencher, side channel, full curve]"}
{"molecule": "COc1cccc(N2CCN(C(=O)c3cc4c(s3)-c3ccccc3OC4)CC2)c1", "Potency": "inconclusive: 25.1 µM [inhibitor, single point]"}
{"molecule": "CCOC(=O)N1CCC(NC(=O)Cc2ccccc2)CC1", "Potency": "inconclusive: 39.8 µM [inhibitor, single point]"}
{"molecule": "CCCN(CCC)c1nc2c(C)cccn2c(=O)c1/C=C1/SC(=S)N(Cc2ccco2)C1=O", "Potency": "inconclusive: 15.8 µM [fluorescent, side channel, partial curve]"}
{"molecule": "Cc1cccc(CNc2ccnc(-c3ccc(N(C)C)cc3)n2)c1", "Potency": "inactive"}
{"molecule": "Cc1[nH]n(-c2cccc(Cl)c2)c(=O)c1-c1ccc(Cl)cc1", "Potency": "inconclusive: 39.8 µM [quencher, single point]"}
{"molecule": "CC(=O)Nc1cccc(-c2csc(Nc3ccc(Cl)cn3)n2)c1", "Potency": "inconclusive: 11.2 µM [quencher, side channel, partial curve]"}
{"molecule": "Cc1ccc(C)c2nc3sc(C(=O)O)cc3cc12", "Potency": "inconclusive: 14.1 µM [inhibitor, partial curve]"}
{"molecule": "CCc1ccc(C(C)(O)C(CN2CCOCC2)c2ccccc2)cc1", "note": "(centres undefined)", "Potency": "inconclusive: 12.6 µM [fluorescent, side channel, partial curve]"}
{"molecule": "O=C1C(Nc2ccccc2)=C/C(=N/S(=O)(=O)c2cccs2)c2ccccc21", "Potency": "inconclusive: 7.94 µM [quencher, side channel, partial curve]"}
{"molecule": "Cc1ccc(C(=O)O/N=C\\c2ccc(N3CCCCC3)c([N+](=O)[O-])c2)cc1", "Potency": "inactive"}
{"molecule": "CC(=O)N1c2ccc(S(=O)(=O)NCC3CCC(C(=O)NC4CCCCC4C)CC3)cc2CC1C", "note": "(centres undefined)", "Potency": "inconclusive: 39.8 µM [fluorescent, side channel, single point]"}
{"molecule": "COc1ccc(NC(=S)N/N=C2\\CC(C)(C)Oc3ccc(O)cc32)cc1", "Potency": "inconclusive: 39.8 µM [quencher, side channel, single point]"}
{"molecule": "S=c1[nH]nc(C2CCCCC2)n1/N=C/c1ccc(Cl)cc1", "Potency": "inactive"}
{"molecule": "Cc1ccc(NCc2ccc(O)c3ncccc23)cc1C", "Potency": "inactive"}
{"molecule": "CC(C)c1ccc2nc(SCC(=O)NCC3CCCO3)c(C#N)cc2c1", "note": "(centres undefined)", "Potency": "inconclusive: 39.8 µM [inhibitor, single point]"}
{"molecule": "CCCCOc1ccc(-c2csc(N)n2)cc1[N+](=O)[O-]", "Potency": "inconclusive: 28.2 µM [quencher, side channel, partial curve]"}
{"molecule": "Cc1ccc(C(=O)Nc2ccc(S(=O)(=O)N3CCCC3)cc2)cc1", "Potency": "inactive"}
{"molecule": "COc1ccc(C2CC(c3cccs3)=NN2C(=O)CSc2nncs2)cc1OC", "note": "(centres undefined)", "Potency": "inconclusive: 14.1 µM [inhibitor, partial curve]"}
{"molecule": "CC(C)(C)c1ccc(C(=O)Nc2ccc(S(=O)(=O)Nc3cnc4ccccc4n3)cc2)cc1", "Potency": "inconclusive: 10 µM [quencher, side channel, partial curve]"}
{"molecule": "CCOc1ccccc1NC(=O)c1ccc2c(c1)C(=O)N(CC)C2=O", "Potency": "inconclusive: 31.6 µM [fluorescent, side channel, single point]"}
{"molecule": "CCC1CCCCN1c1nc2c(C=O)c(C)nn2c2ccccc12", "note": "(centres undefined)", "Potency": "inconclusive: 3.55 µM [inhibitor, full curve]"}
{"molecule": "O=C(N/N=C\\c1ccc(-c2ccc([N+](=O)[O-])cc2)o1)C1COc2ccccc2O1", "note": "(centres undefined)", "Potency": "inconclusive: 8.91 µM [quencher, side channel, single point]"}
{"molecule": "Cc1c(-n2c(SCC(=O)C(C)(C)C)nc3ccccc3c2=O)c(=O)n(-c2ccccc2)n1C", "Potency": "inconclusive: 11.2 µM [fluorescent, side channel, partial curve]"}
{"molecule": "CN(C)C=Nc1c(Br)cc(Br)c2nonc12", "Potency": "inconclusive: 39.8 µM [fluorescent, side channel, single point]"}
{"molecule": "O=C(/C=C/c1c[nH]c2ccccc12)c1cccc2ccccc12", "Potency": "inconclusive: 12.6 µM [quencher, side channel, partial curve]"}
{"molecule": "CC(=O)NS(=O)(=O)c1ccc(N=c2ssc3c2-c2ccc(C)cc2NC3(C)C)cc1", "Potency": "inconclusive: 11.2 µM [quencher, side channel, partial curve]"}
